Experimental data reported in patent US20190062414A1 (PHILOGEN S P A, published 2019).
Values belong to the binder of their own block, whether it stands above or below them.

What was measured:
human lysozyme [1] = target: T1, human lysozyme (human, UniProt P61626 19-148); experiment: Biacore (SPR), scFv over CM5 chip coated with native human lysozyme
T1 construct: mature; Coated on a CM5 chip for Biacore; also called commercial native human lysozyme (from human neutrophils); Cat-No. L8402
T1 sequence (looked up): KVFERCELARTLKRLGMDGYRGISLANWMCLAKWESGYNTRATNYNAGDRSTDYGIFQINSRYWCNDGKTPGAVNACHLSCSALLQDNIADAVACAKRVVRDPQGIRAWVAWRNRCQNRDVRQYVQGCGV
Procedure: CT01 was analysed for antigen binding by Biacore using a CM5 chip coated with commercial native human lysozyme (from human neutrophils; Cat-No. L8402; SIGMA) to a final coating density of 2000 resonance units (RU). The flow rate for the Biacore analysis was set at 20 μL/min.

[2] = target: T2, D domain of human Tenascin-C (human, UniProt P24821 1622-1711, limits assumed); experiment: Biacore (SPR), scFv over CM5 chip coated with D domain of human tenascin-C
T2 construct: domain: D domain; Coated on a CM5 chip; also called domain D of human Tenascin-C; human tenascin-C D domain
T2 sequence (looked up): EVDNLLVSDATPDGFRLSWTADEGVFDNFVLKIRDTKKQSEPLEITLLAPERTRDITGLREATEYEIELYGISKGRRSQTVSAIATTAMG

[3] = target: T3, BCD domains of murine tenascin-C (murine, UniProt Q80YX1 1349-1620, limits assumed); experiment: Biacore (SPR), scFv over CM5 chip coated with BCD domain of murine tenascin-C
T3 construct: domain: BCD domains; Coated on a CM5 chip; also called domain BCD of murine Tenascin-C
T3 sequence (looked up): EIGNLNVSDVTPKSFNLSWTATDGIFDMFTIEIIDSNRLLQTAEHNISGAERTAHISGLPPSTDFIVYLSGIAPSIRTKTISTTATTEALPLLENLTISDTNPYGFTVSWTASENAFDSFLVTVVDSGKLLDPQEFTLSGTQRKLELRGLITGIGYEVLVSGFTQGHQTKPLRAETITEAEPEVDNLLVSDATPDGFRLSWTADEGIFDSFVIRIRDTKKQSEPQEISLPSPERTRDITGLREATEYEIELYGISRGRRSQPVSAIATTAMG

human lysozyme [4] = target: T1, human lysozyme; experiment: immunofluorescence on fixed, permeabilised HT29 cells, SIP format, 5 µg/ml
Procedure: Coverslips were placed into culture dishes (100 mm×20 mm), and HT29 cells (both human adenocarcinoma cell lines) were then seeded at 100,000 cells/mL in the culture dishes respectively. The culture was incubated until proper confluency was reached. Cells were fixed and permeabilized by ice-cold methanol incubation at −20° C. Cells were then blocked with 10% FBS/2% BSA. Affinity-purified antibody CT01, in SIP format (final concentration 5 μg/ml) was first incubated with the cells, followed by incubation with a rabbit anti-human IgE antibody (1:500 dilution; DAKO). The antibody was then detected with goat anti-rabbit IgG Alexa 488 (1:1000 dilution; Invitrogen). DAPI was used for nuclei staining. The anti-hen egg Lysozyme SIP antibody (KSF) was used as an isotype-negative control for the staining.

Kd (human lysozyme [1]): 890 nM | koff (human lysozyme [1]): 0.0077 s⁻¹ | kon (human lysozyme [1]): 8720 M⁻¹ s⁻¹
B1: scFv(CT01) (scFv)
scFv: [letters of about 100 residues omitted]PAPRARFDYWGQGTLVTVSSGGGGSGGGGSGGGGSSELTQDPAVSVALGQTVRITCQGDSLRSYYASWYQQKPGQAPVLVIYGKNNRPSGIPDRFSGSSSGNTASLTITGAQAEDEADYYCNSSPTPAPGVVFGGGTKLTVLG
notes: also called anti-human lysozyme antibody CT01

Kd [2]: 850 nM | koff [2]: 0.067 s⁻¹ | kon [2]: 78300 M⁻¹ s⁻¹ | Kd [3]: 430 nM | koff [3]: 0.064 s⁻¹ | kon [3]: 150000 M⁻¹ s⁻¹
B2: scFv(CPR01.1) (scFv)
scFv: [letters of about 100 residues omitted]GGAPFDYWGQGTLVTVSSGGGGSGGGGSGGGGSSELTQDPAVSVALGQTVRITCQGDSLRSYYASWYQQKPGQAPVLVIYGKNNRPSGIPDRFSGSSSGNTASLTITGAQAEDEADYYCNSSLRGTLPVVFGGGTKLTVLG

binding result (human lysozyme [4]): binds
B3: CT01 in SIP format (other)
chain: [letters of about 100 residues omitted]PAPRARFDYWGQGTLVTVSSGGGGSGGGGSGGGGSSELTQDPAVSVALGQTVRITCQGDSLRSYYASWYQQKPGQAPVLVIYGKNNRPSGIPDRFSGSSSGNTASLTITGAQAEDEADYYCNSSPTPAPGVVFGGGTKLTVLGSGGSGGPRAAPEVYAFATPEWPGSRDKRTLACLIQNFMPEDISVQWLHNEVQLPDARHSTTQPRKTKGSGFFVFSRLEVTRAEWEQKDEFICRAVHEAASPSQTVQRAVSVNPESSRRGGC
notes: Small immunoprotein: scFv fused to the CH4 domain of human IgE; also called SIP(CT01)
